Sequences with one replicate were seen in a single cluster, so their values are uncertain.
System: ATP
Test: switch fluorescence ratio, 500 uM ATP over buffer (Cy3 cluster intensity, sum of 5 cycles each) (fold (ratio)); higher = stronger signal-on switching upon ATP binding; sequences stand for … in TCGTCGGCAGCGTCAGATGTGTATAAGAGACAGTTTTTTTTTTTTTTTTTTTTTTTTT…TC
Settings: aptamer strand: ATP DNA aptamer (quencher-CACCTGGGGGAGTATTGCGGAGGAAGG + anchor), 100 nM annealed; ATP concentration: 500 uM; one replicate
How it was run: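 Per cluster, summed Cy3 intensity from the target cycles was divided by that from the buffer cycles to give the fluorescence ratio, then averaged per switch-domain sequence. Clusters outside 100-1000 RFU were excluded. The Cy3-labelled switching-strand clusters, on a modified Illumina MiSeq flow-cell, were annealed to 100 nM quencher-labelled ATP aptamer and imaged in selection buffer, then after 15 min with 500 uM ATP at 22 °C, for five cycles with NaOH stripping and re-annealing between them.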
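Note: ATP exposure 15 min at 22 °C before imaging.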

In the case of GCTCATTATG, the switch fluorescence ratio is reported as 1.
For ATGGGGCCGG, the switch fluorescence ratio was 0.97.
With ATCTCACCAC the switch fluorescence ratio was 1.09.
CTAGAGGGAA gave a switch fluorescence ratio of 0.979.
For AGAGATGCTA, the switch fluorescence ratio was 1.04.
AAAATAGGGC gave a switch fluorescence ratio of 1.08.
In the case of CAATTGTATA, the switch fluorescence ratio is reported as 1.03.
Sequence ATAGAGGT has a switch fluorescence ratio of 0.983.
In the case of ACAGGGGTCG, the switch fluorescence ratio is reported as 0.96.
TTTATCCACC showed a switch fluorescence ratio of 1.01.
GTTATTTATC gave a switch fluorescence ratio of 1.01.
CTTATGCATG showed a switch fluorescence ratio of 1.01.
With AAGCGTCCTT the switch fluorescence ratio was 1.02.
In the case of CTGTAACAAG, the switch fluorescence ratio is reported as 1.
For GCGGGAGAGA, the switch fluorescence ratio was 1.02.
Sequence TATCCAGTAT has a switch fluorescence ratio of 0.994.
In the case of CGTGTTAGAC, the switch fluorescence ratio is reported as 1.07.
AGCCAACTCC showed a switch fluorescence ratio of 2.11.
For AGTCAGTGTT, the switch fluorescence ratio was 0.995.
With AGGAGCTCGT the switch fluorescence ratio was 1.
Sequence CGCAGGTGCT has a switch fluorescence ratio of 3.56.
Work on ATTCAAGATT yielded a switch fluorescence ratio of 0.991.
With GATTCCGAC the switch fluorescence ratio was 1.8.
Work on ATGAATGTCG yielded a switch fluorescence ratio of 0.991.
Sequence TTTGCTGTT has a switch fluorescence ratio of 1.02.
With CACTGAGCCA the switch fluorescence ratio was 0.974.
With TTCAGGTGAT the switch fluorescence ratio was 1.43.
GTATTGGCTT gave a switch fluorescence ratio of 1.
With AGTTTCCGC the switch fluorescence ratio was 1.13.
AGAACGTCCC was tested, and the switch fluorescence ratio was 1.11.
For TCTGGGTCAT, the switch fluorescence ratio was 0.993.
GCACGGTCCA showed a switch fluorescence ratio of 1.06.
For CTGATGTTAT, the switch fluorescence ratio was 0.896.
GTGGGTATAA showed a switch fluorescence ratio of 1.05.
With GCCCGGGTGA the switch fluorescence ratio was 2.7.
ACGAATGGAA was tested, and the switch fluorescence ratio was 1.06.
Work on AAAGAATGAC yielded a switch fluorescence ratio of 1.04.
Sequence AAGAACTTT has a switch fluorescence ratio of 0.968.
CTGATTATAT was tested, and the switch fluorescence ratio was 1.01.
For AGTAAAGCTA, the switch fluorescence ratio was 1.01.
For ACTGTTCTCT, the switch fluorescence ratio was 0.995.
ATTCGGAGTA was tested, and the switch fluorescence ratio was 0.998.
Work on AACAGTTTAT yielded a switch fluorescence ratio of 1.03.
With TTATTTGCAG the switch fluorescence ratio was 0.98.
TCATTCCAGG was tested, and the switch fluorescence ratio was 1.15.
For CTGGGCCTGT, the switch fluorescence ratio was 1.08.
Work on TTCTACTGTG yielded a switch fluorescence ratio of 0.987.
Sequence GTTCTAACAC has a switch fluorescence ratio of 0.994.
For GCGCCGGGC, the switch fluorescence ratio was 0.974.
CTCAGGGGTA gave a switch fluorescence ratio of 1.12.
TAAGAGTCCC was tested, and the switch fluorescence ratio was 0.97.
Sequence CTGGGTTCGG has a switch fluorescence ratio of 0.968.
Work on TCTAAGACCC yielded a switch fluorescence ratio of 0.993.
With GAACAAGATC the switch fluorescence ratio was 1.05.
Sequence GGTTTCGAGT has a switch fluorescence ratio of 1.01.
Work on ACTGATGTGT yielded a switch fluorescence ratio of 0.961.
CATGTCTGAG showed a switch fluorescence ratio of 1.02.
In the case of ACCCTCTCGC, the switch fluorescence ratio is reported as 1.79.
In the case of TCCCATCGTT, the switch fluorescence ratio is reported as 1.08.
For CGGTAGTTAG, the switch fluorescence ratio was 0.942.
GTGTCGGGGG was tested, and the switch fluorescence ratio was 0.93.
With GAAGATGTAA the switch fluorescence ratio was 1.01.
TTGGTAGGGA showed a switch fluorescence ratio of 1.01.
CTACGAGTTC gave a switch fluorescence ratio of 1.09.
In the case of CCAACATTGG, the switch fluorescence ratio is reported as 1.
TCAACTTGTA was tested, and the switch fluorescence ratio was 0.975.
AGGTAACATA gave a switch fluorescence ratio of 1.02.
With AGCTGTGAAG the switch fluorescence ratio was 1.05.
CGATTTAGT gave a switch fluorescence ratio of 1.01.
Work on ATGATTTCGC yielded a switch fluorescence ratio of 0.997.
CATCTGGGAA showed a switch fluorescence ratio of 1.09.
For AATTCGGAAA, the switch fluorescence ratio was 0.992.
ACTGAGGGAA was tested, and the switch fluorescence ratio was 1.02.
With TAAGTTTTCT the switch fluorescence ratio was 0.934.
For AGGGTCGCCC, the switch fluorescence ratio was 0.986.
Sequence CCAACGCTTG has a switch fluorescence ratio of 1.6.
CACAATGTAC gave a switch fluorescence ratio of 1.47.
ATTACCCTTG gave a switch fluorescence ratio of 1.
Work on TACACTGATG yielded a switch fluorescence ratio of 1.04.
With TCATCCGTTG the switch fluorescence ratio was 1.81.
AGCCCCGCCT was tested, and the switch fluorescence ratio was 1.53.
Sequence TTAATAACGC has a switch fluorescence ratio of 0.982.
With AAGTAACTAT the switch fluorescence ratio was 1.
Work on TCGTTATAGG yielded a switch fluorescence ratio of 0.979.
In the case of ATAATATTGA, the switch fluorescence ratio is reported as 0.998.
In the case of CATTACGATC, the switch fluorescence ratio is reported as 1.03.
Work on GTTTTGACGA yielded a switch fluorescence ratio of 0.976.
CGAAGTCATT gave a switch fluorescence ratio of 1.06.
ATTAGAAGTT gave a switch fluorescence ratio of 0.984.
TCTGAATTGG gave a switch fluorescence ratio of 1.01.
For CAATAAAGGG, the switch fluorescence ratio was 1.04.
TCCGATACTT showed a switch fluorescence ratio of 1.22.
In the case of TACACTGGCC, the switch fluorescence ratio is reported as 0.931.
With ATGGTTCTAA the switch fluorescence ratio was 0.989.
Work on ACAGTATACT yielded a switch fluorescence ratio of 1.18.
AAGAGTCAAT gave a switch fluorescence ratio of 1.06.
In the case of GCAGCCTGAA, the switch fluorescence ratio is reported as 1.01.
With CAAGTCGACA the switch fluorescence ratio was 1.01.
Work on GCGACACTTA yielded a switch fluorescence ratio of 1.07.
Sequence AGATTACT has a switch fluorescence ratio of 0.966.
For TGGACCGCGC, the switch fluorescence ratio was 0.973.
Sequence TGGGATTGAG has a switch fluorescence ratio of 1.
In the case of CTGTGTTCGC, the switch fluorescence ratio is reported as 0.993.
ATACGACACT showed a switch fluorescence ratio of 1.91.
Work on ACAAAGGGGT yielded a switch fluorescence ratio of 0.964.
TGGGGTCCAA gave a switch fluorescence ratio of 0.979.
Sequence CTCCCTCCTT has a switch fluorescence ratio of 1.12.
With TTGAGACGAC the switch fluorescence ratio was 1.02.
TAATACTCGG showed a switch fluorescence ratio of 1.09.
For AAACGAAACA, the switch fluorescence ratio was 1.08.
In the case of TGTTCCAGTT, the switch fluorescence ratio is reported as 0.948.
With AAGCATATGA the switch fluorescence ratio was 1.02.
Work on CCAACTGTTA yielded a switch fluorescence ratio of 1.03.
Sequence CAATCTTTT has a switch fluorescence ratio of 0.981.
Sequence ATTCTACAAC has a switch fluorescence ratio of 0.968.
For TTTTTCTCAC, the switch fluorescence ratio was 1.03.
For CATAAAATTG, the switch fluorescence ratio was 1.01.
For GATTATGTGA, the switch fluorescence ratio was 1.03.
Sequence TGCATCAAAT has a switch fluorescence ratio of 1.02.
TTGTGCCTGA gave a switch fluorescence ratio of 1.02.
Sequence GATCGTTAAA has a switch fluorescence ratio of 1.01.
Work on CGGCGAAAAA yielded a switch fluorescence ratio of 1.
Sequence TCGGAAGTTT has a switch fluorescence ratio of 0.978.
Sequence CGGGAAAAAT has a switch fluorescence ratio of 1.03.
TTAGTACTA was tested, and the switch fluorescence ratio was 1.02.
With AAGTGCGGGT the switch fluorescence ratio was 1.02.
Work on GGGTGCACTA yielded a switch fluorescence ratio of 0.996.
Work on GTGAAAGAGG yielded a switch fluorescence ratio of 0.981.
In the case of CGCTCCGGCG, the switch fluorescence ratio is reported as 1.03.
For CGTTCGGGCG, the switch fluorescence ratio was 1.07.
CTATTGCGGA was tested, and the switch fluorescence ratio was 1.01.
With CCGATGGTGA the switch fluorescence ratio was 1.68.
In the case of TCAGTATTGG, the switch fluorescence ratio is reported as 1.04.
GGACTGTAAC gave a switch fluorescence ratio of 1.21.
CAACTCTTT gave a switch fluorescence ratio of 1.04.
Work on TTCCCATACG yielded a switch fluorescence ratio of 1.19.
For GCCGGTCAAT, the switch fluorescence ratio was 1.01.
TAGACCAGGG gave a switch fluorescence ratio of 1.09.
For GAAGAGAGTA, the switch fluorescence ratio was 1.
In the case of ATTCTCTCGA, the switch fluorescence ratio is reported as 1.03.
GGGAATACGG gave a switch fluorescence ratio of 0.957.
GGACCGTGCG showed a switch fluorescence ratio of 1.02.
In the case of AGCACTTCCA, the switch fluorescence ratio is reported as 1.03.
Sequence TGGAAACACT has a switch fluorescence ratio of 1.04.
AAGACTGCTA showed a switch fluorescence ratio of 1.08.
GATGTGGAGC showed a switch fluorescence ratio of 1.04.
TGAAAGGGCC was tested, and the switch fluorescence ratio was 1.01.
In the case of AAGGCATGGC, the switch fluorescence ratio is reported as 0.922.
For TTCAGAGAGG, the switch fluorescence ratio was 1.02.
In the case of GAGCGGATTC, the switch fluorescence ratio is reported as 1.07.
In the case of AGCGCATCTC, the switch fluorescence ratio is reported as 0.98.
For CTCTCAAAAG, the switch fluorescence ratio was 1.09.
Work on AGACACGTCT yielded a switch fluorescence ratio of 1.01.
CCCCCACACA gave a switch fluorescence ratio of 1.29.
With TATTATCCCA the switch fluorescence ratio was 1.04.
Work on ACGAGCATCT yielded a switch fluorescence ratio of 1.23.
With CGGCTGGGTT the switch fluorescence ratio was 0.936.
